Measurements taken from PubChem BioAssay AID686978 (National Center for Advancing Translational Sciences (NCATS), 2013).
In all, about 420,000 compounds went through this assay and about 64,000 (15%) were called active. This list was built around the results that the source calls inconclusive (neither active nor inactive); the mix of calls is not that of the screen. The call rests on the fitted dose curve; in most records, active means well fitted inhibition curve with a large enough effect; inconclusive means small, poorly fitted or top-dose-only effect; inactive means flat fitted curve, though single readings scatter. No potency is given beside an inconclusive call; the fits are too rough.

Assay: qHTS for Inhibitors of human tyrosyl-DNA phosphodiesterase 1 (TDP1): qHTS in cells in absence of CPT; further: nearly all actives have a fitted effect of over 55% in size
Conditions: DT40 Tdp1-/- hTDP1 cells, no CPT, ATP luminescence, 48 h; activity change, negative = growth inhibition: at 46.2 µM (top of the series) unless noted
How it was run: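 Seeded 400 DT40-hTDP1 cells/well (vehicle DMSO, no 20 nM CPT); pinned compounds; ≥48 hr at 37 °C; CellTiter-Glo luminescence as viability measure.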
On the % scale 0 is the no-effect control and ±100 the full control effect; potency means the concentration at half of the fitted maximal effect; tags describe the fitted curve by direction and shape.

Compound | Potency | activity change, negative = growth inhibition
CC(C)CCNC(=O)CN1C(=O)CSc2ccc(S(=O)(=O)N3CCCCC3)cc21 | inconclusive [inhibitor, partial curve, poor fit] | 
CCCCn1c(N)c(N(CCOC)C(=O)c2ccc(S(=O)(=O)N3CCCCCC3)cc2)c(=O)[nH]c1=O | inactive | 
CCn1c(COc2ccc(OC)cc2)nc2ccccc21 |  | inconclusive: -33.6% [inhibitor]
CCOC(=O)C1=C(C)NC(=O)NC1c1cccc(OC)c1OCc1ccccc1Cl (configuration not stated) | inconclusive [inhibitor, partial curve] | 
CN(C)C(=S)Nc1ccc2ccccc2c1 | inconclusive [inhibitor, single point] | 
Oc1ccc(Nc2nc(-c3ccccc3O)nc3ccccc23)cc1 | inconclusive [inhibitor, single point] | 
COc1ccc(-c2ccc3nnc(SCC(=O)Nc4ccc(NC(C)=O)cc4)n3n2)cc1 | inconclusive [inhibitor, partial curve] | 
Cc1cc(C)c(C#N)c(SCC(=O)c2cc(C)n(CCc3ccccc3)c2C)n1 | active: 18.4 µM | 
CCn1c(SCC(=O)Nc2cccc(NC(=O)c3ccco3)c2)nnc1-c1cccs1 | active: 16.4 µM | 
CCOc1ccc(CNC(=O)c2ccccc2NC(=O)C2=CSCCO2)cc1 | inconclusive [inhibitor, single point] | 
CSc1ccc(CN2CCC2(C)C(=O)Nc2cnc3ccccc3c2)cc1 (configuration not stated) | inconclusive [inhibitor, partial curve] | 
CN(C)CCNC(=O)c1cccc2[nH]c(-c3ccncc3)nc12 | active: 13 µM | 
CC(C)CC(c1nnnn1C1CCCC1)N1CCC(C(N)=O)CC1 (configuration not stated) | inactive | 
CCCCN(C=O)c1c(CC)nc2ccc(C(=O)NCc3cccs3)cn12 | inconclusive [inhibitor, partial curve] | 
CCOc1ccc(NC(=O)CCc2nnc3ccc(N4CCC5(CC4)OCCO5)nn23)cc1 | inactive | 
CCOc1ccc(CCNC(=O)c2ccc(N3CCCC3=O)cc2)cc1OCC | inconclusive [inhibitor, single point] | 
CCc1ccccc1NC(=O)C1CCCN(C(=O)c2cnn(-c3ccccc3)c2-n2cccc2)C1 (configuration not stated) | inconclusive [inhibitor, single point] | 
O=C(c1cc2ccccc2oc1=O)N(Cc1ccco1)Cc1cccs1 | inconclusive [inhibitor, single point] | 
CC1(C)OC(=O)C2=C(C[C@@H](CCc3ccccc3)O[C@@H]2c2ccc(Cl)cc2)O1 | inconclusive [inhibitor, single point] | 
COc1ccc(C(=O)OCC(=O)c2ccc3c(c2)NC(=O)CO3)cc1OC | inactive | 
Cc1ccc(-n2c(SCC(=O)Nc3ccc4c(c3)OCO4)nnc2-c2ccccn2)cc1 | inactive | 
O=C(c1ccc(Cl)cc1)c1oc2ccccc2c1CS(=O)c1ccccc1 (configuration not stated) | inconclusive [inhibitor, single point] | 
COc1ccc(C(=O)n2c(N)nc3ccccc32)cc1OC | inconclusive [inhibitor, single point] | 
Cc1ccc(NC(=O)c2nc[nH]c2C(=O)NCCCNC(=O)c2[nH]cnc2C(=O)Nc2ccc(C)cc2)cc1 | inconclusive [inhibitor, single point] | 

Compound | Potency | activity change, negative = growth inhibition
Cc1ccc(NC(=O)c2ccc(-n3c(C)nnc3C)cc2)cc1F | inactive | 
Cc1onc(C(=O)N2CCN(Cc3ccccc3)CC2)c1[N+](=O)[O-] | inactive | 
CCN(Cc1ccncc1)C(=S)NCc1ccccc1 | inactive | 
N#Cc1ccc(C(=O)Nc2ccc(S(=O)(=O)NC3=NCCCCC3)cc2)cc1 | inconclusive [inhibitor, partial curve] | 
CN(C)c1oc(-c2ccc(Cl)cc2)nc1S(=O)(=O)c1ccccc1 | inactive | 
S=C(NNc1ccnc2cc(Cl)ccc12)Nc1ccccc1Cl | active: 2.59 µM | 
COc1ccc(S(=O)(=O)N2CCN(Cc3nc4ccc(C)cc4o3)CC2)cc1Cl | inconclusive [inhibitor, single point] | 
COC[C@H]1CCCN1c1ccc2c(c1)O[C@H](COCc1ccccc1)CN([C@@H](C)c1ccccc1)S2(=O)=O | active: 16.4 µM | 
CCCc1nc(SCc2cc(=O)c3ccc(C)c(C)c3[nH]2)n[nH]1 | inconclusive [inhibitor, single point] | 
COc1ccc(Cc2c(C(C)(C)C)nc3c(C)cc(Br)cn23)c(C)c1 | active: 23.1 µM | 
O=C(NCc1cccs1)c1cc(-c2ccccc2)nc2ccccc12 | active: 20.6 µM | 
O=c1c2cc3c(=O)n(CC4CCCO4)c(=O)c3cc2c(=O)n1CC1CCCO1 (configuration not stated) | inactive | 
CN1CCC[C@H]1CCNC(=O)c1c(-c2ccsc2)sc2ccccc12 | inactive | 
C#CCn1cc(/C=N/NC(=O)c2cc3ccccc3o2)c2ccccc21 | inconclusive [inhibitor, partial curve] | 
Clc1ccccc1CSc1nc2ccncc2[nH]1 | active: 23.1 µM | 
COCCCN1C(=O)N(c2ccc(F)cc2)C(=O)C1CC(=O)Nc1ccccc1 (configuration not stated) | inactive | 
O=C1NC(c2cccc3ccccc23)Nc2ccc(Cl)cc21 (configuration not stated) | active: 0.58 µM | 
COc1cccc(COC(=O)c2c(C)nn(-c3ccccc3)c2Cl)c1OC |  | inconclusive: -30.8% [inhibitor]
CCc1cc2c(cc3c(=O)n(CC(=O)NC4CCC(C)CC4)ncn32)s1 (configuration not stated) | inconclusive [inhibitor, single point] | 
CCC1CCCCN1CCCNC(=O)c1ccc2c(c1)N(Cc1ccc(F)cc1)C(=O)c1ccccc1S2=O (configuration not stated) | inconclusive [inhibitor, single point] | 
CCOc1ccc(OCc2ccc(C(=O)Nc3cccnc3)o2)cc1 | inconclusive [inhibitor, single point] | 
CCN(CC)c1ccc(C=Nc2ccc(C)cc2C)c(O)c1 | inactive | 
COc1cc(OC)c(NS(=O)(=O)c2ccc3c(c2)CCCN3C(C)=O)cc1Cl | inconclusive [inhibitor, single point] | 
